# In the supplement of paper PMC8728848:
# The other results are listed elsewhere or left out.
# B1: PV12658A-bvu-496-32-496 (Bacteroides vulgatus) (protein)
# chain: DLDGAITTPAAVELALNGIYYSLPGNGFNVIFPTVSGSFKAGTMWRQEIVSAGNAVYYSERMLPTLSFSDATEWDADYAVIKNANFLETACNRMSDGEFSGNRRAEVLGEIAYLRALAYFNILVRYCEFWDMNSEYGVVMRNEAPSVSNALKARSSVADSYQYILDQLEIAIEKAPDWKKLSQASKEAAKALKARVLLYAGKYTEAVAAVNDAIDTNSPLPEANYGDVFDKFSTTKEILFARVFDQKDATNTSTRQQCYGNSPTKKQGYWGPTNEYVELVGDDPRADAIFSKVDSLMDSRSSAVAYNLKSVKKLLNDANDMPVIFSRVSELYLIKAEALYRSGASISEAYAPIRKLRERAGAEIILPANNEELETAIFNEWMLELSFENWHEWFAMIRFAGYTEKPDFTRLLALNKTLREALEKEYEKSEAQGDNYYQRIIDRRIDAIPSSEISSNLECKQNPGY
# Legend:
# Assay in all cases: glycan array binding signal (z-score within array); higher = stronger binding
# Conditions in all cases: glycan notation: IUPAC condensed, linker removed
# Fuc(a1-2)Gal = molecular target: Fuc(a1-2)Gal
# How it was run: (§1)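 Negative Z-scores can be read as non-binding. The Z-score is calculated within each array and then averaged across arrays of one protein sequence at different concentrations or buffers and across linkers. Arrays, 3228 in all, were curated from the Consortium for Functional Glycomics database and kept only where the protein sequence was available.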
# Fuc(a1-2)Gal(b1-3)GalNAc = molecular target: Fuc(a1-2)Gal(b1-3)GalNAc
# How it was run: as §1
# [1] = molecular target: Fuc(a1-2)Gal(b1-3)GalNAc(a1-3)[Fuc(a1-2)]Gal(b1-4)Glc
# How it was run: as §1
# [2] = molecular target: Fuc(a1-2)Gal(b1-3)GalNAc(a1-3)[Fuc(a1-2)]Gal(b1-4)GlcNAc
# How it was run: as §1
# [3] = molecular target: Fuc(a1-2)Gal(b1-3)GalNAc(b1-3)Gal
# How it was run: as §1
# [4] = molecular target: Fuc(a1-2)Gal(b1-3)GalNAc(b1-3)Gal(a1-4)Gal(b1-4)Glc
# How it was run: as §1
# [5] = molecular target: Fuc(a1-2)Gal(b1-3)GalNAc(b1-4)[Neu5Ac(a2-3)]Gal(b1-4)Glc
# How it was run: as §1
# Fuc(a1-2)Gal(b1-3)GlcNAc = molecular target: Fuc(a1-2)Gal(b1-3)GlcNAc
# How it was run: as §1
# [6] = molecular target: Fuc(a1-2)Gal(b1-3)GlcNAc(b1-2)Man(a1-3)[Fuc(a1-2)Gal(b1-3)GlcNAc(b1-2)Man(a1-6)]Man(b1-4)GlcNAc(b1-4)GlcNAc
# How it was run: as §1
# [7] = molecular target: Fuc(a1-2)Gal(b1-3)GlcNAc(b1-2)Man(a1-3)[Fuc(a1-2)Gal(b1-3)GlcNAc(b1-2)Man(a1-6)]Man(b1-4)GlcNAc(b1-4)[Fuc(a1-6)]GlcNAc
# How it was run: as §1
# [8] = molecular target: Fuc(a1-2)Gal(b1-3)GlcNAc(b1-3)Gal(b1-4)Glc
# How it was run: as §1
# [9] = molecular target: Fuc(a1-2)Gal(b1-3)GlcNAc(b1-3)GalNAc
# How it was run: as §1
# [10] = molecular target: Fuc(a1-2)Gal(b1-3)GlcNAc(b1-3)[Fuc(a1-2)Gal(b1-3)GlcNAc(b1-6)]GalNAc
# How it was run: as §1
# [11] = molecular target: Fuc(a1-2)Gal(b1-3)GlcNAc(b1-3)[Gal(b1-4)GlcNAc(b1-6)]Gal(b1-4)Glc
# How it was run: as §1
# [12] = molecular target: Fuc(a1-2)Gal(b1-3)GlcNAc(b1-3)[Neu5Ac(a2-6)Gal(b1-4)GlcNAc(b1-6)]Gal(b1-4)Glc
# How it was run: as §1
# [13] = molecular target: Fuc(a1-2)Gal(b1-3)GlcNAc6S
# How it was run: as §1
# [14] = molecular target: Fuc(a1-2)Gal(b1-3)[Fuc(a1-4)]GlcNAc
# How it was run: as §1
# [15] = molecular target: Fuc(a1-2)Gal(b1-3)[Fuc(a1-4)]GlcNAc(b1-2)Man(a1-3)[Fuc(a1-2)Gal(b1-3)[Fuc(a1-4)]GlcNAc(b1-2)Man(a1-3)]Man(b1-4)GlcNAc(b1-4)GlcNAc
# How it was run: as §1
# [16] = molecular target: Fuc(a1-2)Gal(b1-3)[Fuc(a1-4)]GlcNAc(b1-2)Man(a1-3)[Fuc(a1-2)Gal(b1-3)[Fuc(a1-4)]GlcNAc(b1-2)Man(a1-6)]Man(b1-4)GlcNAc(b1-4)[Fuc(a1-6)]GlcNAc(b1-4)[Fuc(a1-6)]GlcNAc
# How it was run: as §1
# [17] = molecular target: Fuc(a1-2)Gal(b1-3)[Fuc(a1-4)]GlcNAc(b1-3)[Fuc(a1-3)[Gal(b1-4)]GlcNAc(b1-6)]Gal(b1-4)Glc
# How it was run: as §1
# [18] = molecular target: Fuc(a1-2)Gal(b1-3)[Fuc(a1-4)]GlcNAc(b1-3)[Gal(b1-4)GlcNAc(b1-6)]Gal(b1-4)Glc
# How it was run: as §1
# Fuc(a1-2)Gal(b1-4)Glc = molecular target: Fuc(a1-2)Gal(b1-4)Glc
# How it was run: as §1
binder,measurement,setting,value
B1,glycan array binding signal (z-score),Fuc(a1-2)Gal,-0.214
same,glycan array binding signal (z-score),Fuc(a1-2)Gal(b1-3)GalNAc,-0.423
same,glycan array binding signal (z-score),[1],-0.452
same,glycan array binding signal (z-score),[2],-0.281
same,glycan array binding signal (z-score),[3],0.301
same,glycan array binding signal (z-score),[4],-0.139
same,glycan array binding signal (z-score),[5],-0.212
same,glycan array binding signal (z-score),Fuc(a1-2)Gal(b1-3)GlcNAc,-0.196
same,glycan array binding signal (z-score),[6],0.065
same,glycan array binding signal (z-score),[7],-0.166
same,glycan array binding signal (z-score),[8],-0.333
same,glycan array binding signal (z-score),[9],-0.384
same,glycan array binding signal (z-score),[10],0.662
same,glycan array binding signal (z-score),[11],-0.304
same,glycan array binding signal (z-score),[12],-0.281
same,glycan array binding signal (z-score),[13],-0.045
same,glycan array binding signal (z-score),[14],-0.344
same,glycan array binding signal (z-score),[15],-0.007
same,glycan array binding signal (z-score),[16],0.206
same,glycan array binding signal (z-score),[17],-0.507
same,glycan array binding signal (z-score),[18],-0.34
same,glycan array binding signal (z-score),Fuc(a1-2)Gal(b1-4)Glc,-0.117
